{"source": "paper PMC4336329", "about": "(PLoS ONE, 2015)", "note": "The campaign covered roughly 310,000 compounds. About 2,200 (0.71%) showed an effect of 50% or more. Effects have a minus sign here. Some of the results follow."}
{"biological_target": "human ether-à-go-go-related gene (hERG) potassium channel (human, UniProt Q12809)", "sequence (Q12809 whole entry, looked up)": "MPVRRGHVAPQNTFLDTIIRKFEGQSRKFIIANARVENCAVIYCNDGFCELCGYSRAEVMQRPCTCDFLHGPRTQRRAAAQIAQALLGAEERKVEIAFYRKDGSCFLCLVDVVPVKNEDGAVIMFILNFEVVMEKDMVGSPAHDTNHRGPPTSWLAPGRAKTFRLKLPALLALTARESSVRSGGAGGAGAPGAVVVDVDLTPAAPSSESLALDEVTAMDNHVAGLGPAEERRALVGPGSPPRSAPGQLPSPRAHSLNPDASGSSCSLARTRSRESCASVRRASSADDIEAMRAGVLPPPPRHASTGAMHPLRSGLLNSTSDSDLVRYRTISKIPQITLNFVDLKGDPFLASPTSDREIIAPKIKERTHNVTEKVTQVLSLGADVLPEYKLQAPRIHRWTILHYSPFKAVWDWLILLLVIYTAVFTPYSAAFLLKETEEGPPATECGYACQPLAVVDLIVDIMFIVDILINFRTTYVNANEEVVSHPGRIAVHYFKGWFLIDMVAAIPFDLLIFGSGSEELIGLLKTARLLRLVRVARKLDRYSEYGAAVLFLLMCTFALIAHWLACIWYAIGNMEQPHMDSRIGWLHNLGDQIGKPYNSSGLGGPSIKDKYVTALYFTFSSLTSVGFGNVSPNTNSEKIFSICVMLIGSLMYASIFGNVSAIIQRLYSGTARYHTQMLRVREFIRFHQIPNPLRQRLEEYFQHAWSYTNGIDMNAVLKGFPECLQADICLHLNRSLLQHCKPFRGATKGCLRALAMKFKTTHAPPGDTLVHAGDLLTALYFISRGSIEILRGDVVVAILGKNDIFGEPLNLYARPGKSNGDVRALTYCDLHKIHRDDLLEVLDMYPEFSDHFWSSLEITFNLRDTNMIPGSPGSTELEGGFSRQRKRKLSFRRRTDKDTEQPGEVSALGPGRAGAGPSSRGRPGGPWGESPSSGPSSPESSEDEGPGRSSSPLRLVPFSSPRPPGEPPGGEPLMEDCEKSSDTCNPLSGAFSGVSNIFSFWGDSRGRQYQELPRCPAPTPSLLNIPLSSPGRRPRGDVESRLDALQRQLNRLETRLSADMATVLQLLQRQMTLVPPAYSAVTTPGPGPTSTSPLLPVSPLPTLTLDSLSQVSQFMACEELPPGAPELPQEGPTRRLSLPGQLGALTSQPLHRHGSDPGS", "test": "primary screen, population patch clamp on CHO cells stably expressing hERG", "units": {"hERG current change (%, negative = inhibition) at 1uM": "%"}}
{"compound": "COc1ccc(N(C(=O)c2ccco2)C(C(=O)NC2CCCC2)c2ccc(N(C)C)cc2)cc1", "note": "(centres unmarked)", "hERG current change (%, negative = inhibition) at 1uM": 3.88}
{"compound": "O=C(c1cnccn1)N(Cc1ccco1)C1(C(=O)NC2CCCCC2)CCCCC1", "hERG current change (%, negative = inhibition) at 1uM": 10.9}
{"compound": "O=C(CCCN1C(=O)/C(=C/c2ccccc2Cl)SC1=S)N1CCOCC1", "hERG current change (%, negative = inhibition) at 1uM": 4.54}
{"compound": "COc1ccc(C(=O)Cn2c(Cl)nc3c2c(=O)n(C)c(=O)n3C)cc1", "hERG current change (%, negative = inhibition) at 1uM": 3.55}
{"compound": "O=C(O)C(=O)O.O=C1CCCN1CCCNCC(=O)N1c2ccccc2Sc2ccccc21", "hERG current change (%, negative = inhibition) at 1uM": 13.7}
{"compound": "CCN(Cc1cc(=O)oc2cc(C)ccc12)c1ccccc1", "hERG current change (%, negative = inhibition) at 1uM": 15.3}
{"compound": "O=C(NCCCn1ccnc1)C(=O)NCC1OCCCN1S(=O)(=O)c1ccc(Cl)cc1", "note": "(centres unmarked)", "hERG current change (%, negative = inhibition) at 1uM": 1.46}
{"compound": "CNS(=O)(=O)c1cc(NC(=O)c2cccc3cccnc23)ccc1C", "hERG current change (%, negative = inhibition) at 1uM": 14.7}
{"compound": "CCO[C@@H]1OC(C(=O)O)=C[C@H](c2ccc(C(F)(F)F)cc2)[C@H]1CCCO", "hERG current change (%, negative = inhibition) at 1uM": 13.3}
{"compound": "COc1ccc(-c2ccc(SCC(=O)Nc3nnc(C)s3)nn2)cc1", "hERG current change (%, negative = inhibition) at 1uM": 23.2}
{"compound": "Cc1cccc(-n2cccc2)c1C#N", "hERG current change (%, negative = inhibition) at 1uM": 0.924}
{"compound": "O=S(=O)(c1ccccc1)c1nc(-c2ccccc2)oc1NCc1cccnc1", "hERG current change (%, negative = inhibition) at 1uM": 10.6}
{"compound": "CN(c1ccc(F)cc1)S(=O)(=O)c1ccc2[nH]cc(C(=O)O)c(=O)c2c1", "hERG current change (%, negative = inhibition) at 1uM": 14.4}
{"compound": "CN1C(=O)CSc2ccc(NC(=O)NCc3ccco3)cc21", "hERG current change (%, negative = inhibition) at 1uM": 14.8}
{"compound": "Cc1ccccc1-c1nc2ccccc2c(=O)n1C", "hERG current change (%, negative = inhibition) at 1uM": 14.9}
{"compound": "COCCCn1c(SC(C)C(=O)NC2CC2)nc2ccccc2c1=O", "note": "(centres unmarked)", "hERG current change (%, negative = inhibition) at 1uM": -1.47}
{"compound": "CC1(C)CCC[C@]2(C)[C@H]3CC(=O)O[C@]3(C)CC[C@@H]12", "hERG current change (%, negative = inhibition) at 1uM": 8.28}
{"compound": "O=C(CN1C(=O)c2ccccc2S1(=O)=O)NCc1ccccc1", "hERG current change (%, negative = inhibition) at 1uM": 14.3}
{"compound": "COc1cccc2cc(C(=O)NNC(=O)c3ccc(Br)cc3)c(=O)oc12", "hERG current change (%, negative = inhibition) at 1uM": 12.6}
{"compound": "NC(=O)C(c1cccc(Cl)c1)c1ncc(C(F)(F)F)cc1Cl", "note": "(centres unmarked)", "hERG current change (%, negative = inhibition) at 1uM": 16.4}
{"compound": "Cc1sc2nc(CSC(C)C(=O)Nc3cc(S(C)(=O)=O)ccc3Cl)[nH]c(=O)c2c1C", "note": "(centres unmarked)", "hERG current change (%, negative = inhibition) at 1uM": 14.4}
{"compound": "O=C(Cc1ccc(Cl)cc1)OCC(=O)c1ccc[nH]1", "hERG current change (%, negative = inhibition) at 1uM": 4.96}
{"compound": "O=C(Oc1cccc(NC(=O)c2ccccc2Cl)c1)c1ccc([N+](=O)[O-])cc1", "hERG current change (%, negative = inhibition) at 1uM": 12.4}
{"compound": "O=C(Nc1cccc(C(F)(F)F)c1)Nc1ccon1", "hERG current change (%, negative = inhibition) at 1uM": 8.9}
{"compound": "CCOCC(=O)N1CCc2ccccc21", "hERG current change (%, negative = inhibition) at 1uM": 1.69}
{"compound": "Nc1ncn([C@H]2C[C@H](O)[C@@H](CO)O2)c(=O)n1", "hERG current change (%, negative = inhibition) at 1uM": 24.5}
{"compound": "COc1cc2c(cc1NC(=O)CN(C)Cc1ccc(OC)c(OC)c1)oc1ccccc12", "hERG current change (%, negative = inhibition) at 1uM": 11.8}
{"compound": "COc1ccc2c(c1)OC[C@H]1[C@H]2N2C(=O)c3cc(OC)ccc3NC(=O)[C@@]2(C)[C@H]1c1ccccc1", "hERG current change (%, negative = inhibition) at 1uM": 5.36}
{"compound": "O=[N+]([O-])c1ccc(C[n+]2cccc3ccc4cccnc4c32)cc1.[Br-]", "hERG current change (%, negative = inhibition) at 1uM": -33.1}
{"compound": "COc1ccc(-c2csc3ncnc(N4CCN(c5ccc(OC)cc5)CC4)c23)cc1", "hERG current change (%, negative = inhibition) at 1uM": 4.63}
{"compound": "O=C(c1cc(-c2ccccc2)on1)N1CCC2(CC1)OCCO2", "hERG current change (%, negative = inhibition) at 1uM": 10.2}
{"compound": "Cc1ccccc1OC(=O)c1cccc(S(=O)(=O)N2CCN(C)CC2)c1", "hERG current change (%, negative = inhibition) at 1uM": 4.58}
{"compound": "CCCCn1c(S(=O)(=O)O)nc2ccccc21", "hERG current change (%, negative = inhibition) at 1uM": 16.8}
{"compound": "CCOc1ccc(C(O)(c2ccccc2)C(CN2CCCC2)c2ccccc2)cc1.Cl", "note": "(centres unmarked)", "hERG current change (%, negative = inhibition) at 1uM": 3.98}
{"compound": "COc1ccc(OC)c(NC(=O)NCCCCc2ccccc2)c1", "hERG current change (%, negative = inhibition) at 1uM": 4.57}
{"compound": "CC(Nc1cc(N2CCN(S(C)(=O)=O)CC2)ccc1[N+](=O)[O-])c1ccccc1", "note": "(centres unmarked)", "hERG current change (%, negative = inhibition) at 1uM": 7.96}
{"compound": "Cc1ccc(CN/C=C/C(=O)c2ccc(Br)cc2)cc1", "hERG current change (%, negative = inhibition) at 1uM": -3.93}
{"compound": "C=CCNc1nnc(-c2ccncc2)s1", "hERG current change (%, negative = inhibition) at 1uM": -1.86}
{"compound": "CCc1ccc(CNc2ccc(O)cc2)cc1", "hERG current change (%, negative = inhibition) at 1uM": 12.5}
{"compound": "CCCC1O[C@@H]2C[C@H]3[C@@H]4CCC5=CC(=O)C=C[C@]5(C)[C@H]4[C@@H](O)C[C@]3(C)[C@]2(C(=O)CO)O1", "note": "(some centres unmarked)", "hERG current change (%, negative = inhibition) at 1uM": 8.4}
{"compound": "c1ccc2c(c1)nc(-c1ccncc1)n1nnnc21", "hERG current change (%, negative = inhibition) at 1uM": -5.2}
{"compound": "O=C1CC(Nc2ccc3ccccc3c2)C(=O)N1Cc1ccccc1", "note": "(centres unmarked)", "hERG current change (%, negative = inhibition) at 1uM": 13.6}
{"compound": "CCOc1ccc(-c2nnc(-c3ccco3)o2)cc1", "hERG current change (%, negative = inhibition) at 1uM": 3.85}
{"compound": "CN1CCN(NC(=O)C23CC4CC(CC(C4)C2)C3)CC1.Cl", "hERG current change (%, negative = inhibition) at 1uM": -17.1}
